35 molecules from the supplement of paper PMC4604168 (melanoma cell lines) can be followed below.

The list shows a part of the results. Single values are uncertain, as repeats are few or missing.
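Further: cell number obtained by counting DAPI-stained nuclei in high-throughput microscope images with image analysis software, screen run in 1,536-well plates.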

This test relates to COLO792. Nature of the test: cell count relative to DMSO control; melanoma cells; higher = more viable cells. The settings on record: library dose: low library concentration; 72 h.
For `OCc1c[nH]c2ccccc12` [Indole-3-carbinol] + COCC[n+]1c2c(n(Cc3cnccn3)c1C)C(=O)c1ccccc1C2=O [YM155] (first compound 0.8 µM, partner dose 0.0004 µM), the cell count was 120%.

In turn, `OCc1c[nH]c2ccccc12` [Indole-3-carbinol] + C[C@]1(c2nc3c(C(N)=O)cccc3[nH]2)CCCN1 [Veliparib] (first compound 0.8 µM, partner dose 1.4 µM) came in with a cell count of 87.8%.

In the case of `OCc1c[nH]c2ccccc12` [Indole-3-carbinol] + C#Cc1cccc(Nc2ncnc3cc(OCCOC)c(OCCOC)cc23)c1 [erlotinib] (first compound 0.8 µM, partner dose 0.8 µM), the cell count amounted to 81%.

On to `C#Cc1cccc(Nc2ncnc3cc(OCCOC)c(OCCOC)cc23)c1` [erlotinib] + Cn1nnc2c(C(N)=O)ncn2c1=O [temozolomide] (first compound 0.8 µM, partner dose 2 µM), for which the cell count came out at 67.6%.

The molecule `C#Cc1cccc(Nc2ncnc3cc(OCCOC)c(OCCOC)cc23)c1` [erlotinib] + Cc1nc(Nc2ncc(C(=O)Nc3c(C)cccc3Cl)s2)cc(N2CCN(CCO)CC2)n1 [dasatanib] (first compound 0.8 µM, partner dose 0.004 µM) returned a cell count of 62.2%.

Take `Cn1c(Nc2ccc(C(F)(F)F)cc2)nc2cc(Oc3ccnc(-c4ncc(C(F)(F)F)[nH]4)c3)ccc21` + Cn1nnc2c(C(N)=O)ncn2c1=O [temozolomide] (first compound 0.08 µM, partner dose 2 µM): the cell count turned out to be 31%.

In turn, `COCC[n+]1c2c(n(Cc3cnccn3)c1C)C(=O)c1ccccc1C2=O` + C[C@]1(c2nc3c(C(N)=O)cccc3[nH]2)CCCN1 [Veliparib] (first compound 0.0004 µM, partner dose 1.4 µM) had a cell count of 90.3%.

On to `OCc1c[nH]c2ccccc12` [Indole-3-carbinol] + COc1cc(Nc2ncc(F)c(Nc3ccc4c(n3)NC(=O)C(C)(C)O4)n2)cc(OC)c1OC [Tamatinib] (first compound 0.8 µM, partner dose 0.4 µM), for which the cell count came to 68.2%.

On to `Clc1ccc(Nc2nnc(Cc3ccncc3)c3ccccc23)cc1` [vatalanib] + C[C@@H]1CCN(C(=O)CC#N)C[C@@H]1N(C)c1ncnc2[nH]ccc12 [CP690550] (first compound 2 µM, partner dose 1 µM), for which the cell count was found to be 82.8%.

Regarding `C#Cc1cccc(Nc2ncnc3cc(OCCOC)c(OCCOC)cc23)c1` [erlotinib] + COCC[n+]1c2c(n(Cc3cnccn3)c1C)C(=O)c1ccccc1C2=O [YM155] (first compound 0.8 µM, partner dose 0.0004 µM), the cell count stood at 84.5%.

As to `Clc1ccc(Nc2nnc(Cc3ccncc3)c3ccccc23)cc1` [vatalanib] + COCC[n+]1c2c(n(Cc3cnccn3)c1C)C(=O)c1ccccc1C2=O [YM155] (first compound 2 µM, partner dose 0.0004 µM), the cell count came out at 89%.

For the molecule `OCc1c[nH]c2ccccc12` [Indole-3-carbinol] + COc1ccc(Cl)c(Nc2nc3ccccc3nc2NS(=O)(=O)c2cccc(NC(=O)C(C)(C)N)c2)c1 [XL147] (first compound 0.8 µM, partner dose 0.8 µM), the cell count was 96.7%.

Molecule `Nc1cccc2c1CN(C1CCC(=O)NC1=O)C2=O` (stereo not given) [lenalidomide] + C[C@]1(c2nc3c(C(N)=O)cccc3[nH]2)CCCN1 [Veliparib] (first compound 1 µM, partner dose 1.4 µM) yielded a cell count of 90.5%.

In turn, `COCC[n+]1c2c(n(Cc3cnccn3)c1C)C(=O)c1ccccc1C2=O` + O=C(CCCCCCC(=O)Nc1ccccc1)NO [vorinostat] (first compound 0.0004 µM, partner dose 0.08 µM) had a cell count of 105%.

With `OCc1c[nH]c2ccccc12` [Indole-3-carbinol] + Cn1c(Nc2ccc(C(F)(F)F)cc2)nc2cc(Oc3ccnc(-c4ncc(C(F)(F)F)[nH]4)c3)ccc21 [CHIR265] (first compound 0.8 µM, partner dose 0.08 µM), the cell count is 48.2%.

Regarding `COCC[n+]1c2c(n(Cc3cnccn3)c1C)C(=O)c1ccccc1C2=O` + Nc1cccc2c1CN(C1CCC(=O)NC1=O)C2=O [lenalidomide] (first compound 0.0004 µM, partner dose 1 µM), the cell count came out at 92.6%.

The molecule `COCC[n+]1c2c(n(Cc3cnccn3)c1C)C(=O)c1ccccc1C2=O` + Cn1nnc2c(C(N)=O)ncn2c1=O [temozolomide] (first compound 0.0004 µM, partner dose 2 µM) registered a cell count of 107%.

As to `Clc1ccc(Nc2nnc(Cc3ccncc3)c3ccccc23)cc1` [vatalanib] + COc1ccc(Cl)c(Nc2nc3ccccc3nc2NS(=O)(=O)c2cccc(NC(=O)C(C)(C)N)c2)c1 [XL147] (first compound 2 µM, partner dose 0.8 µM), the cell count came to 82.6%.

Molecule `Cn1c(Nc2ccc(C(F)(F)F)cc2)nc2cc(Oc3ccnc(-c4ncc(C(F)(F)F)[nH]4)c3)ccc21` + C[C@@H]1CCN(C(=O)CC#N)C[C@@H]1N(C)c1ncnc2[nH]ccc12 [CP690550] (first compound 0.08 µM, partner dose 1 µM) showed a cell count of 48.9%.

Take `Clc1ccc(Nc2nnc(Cc3ccncc3)c3ccccc23)cc1` [vatalanib] + Cc1nc(Nc2ncc(C(=O)Nc3c(C)cccc3Cl)s2)cc(N2CCN(CCO)CC2)n1 [dasatanib] (first compound 2 µM, partner dose 0.004 µM): the cell count was found to be 58.2%.

Molecule `C#Cc1cccc(Nc2ncnc3cc(OCCOC)c(OCCOC)cc23)c1` [erlotinib] + Nc1cccc2c1CN(C1CCC(=O)NC1=O)C2=O [lenalidomide] (first compound 0.8 µM, partner dose 1 µM) displayed a cell count of 88.7%.

On to `Clc1ccc(Nc2nnc(Cc3ccncc3)c3ccccc23)cc1` [vatalanib] + Cn1nnc2c(C(N)=O)ncn2c1=O [temozolomide] (first compound 2 µM, partner dose 2 µM), for which the cell count came to 81.5%.

Take `Clc1ccc(Nc2nnc(Cc3ccncc3)c3ccccc23)cc1` [vatalanib] + C[C@]1(c2nc3c(C(N)=O)cccc3[nH]2)CCCN1 [Veliparib] (first compound 2 µM, partner dose 1.4 µM): the cell count was found to be 95.1%.

For the molecule `C#Cc1cccc(Nc2ncnc3cc(OCCOC)c(OCCOC)cc23)c1` [erlotinib] + C[C@]1(c2nc3c(C(N)=O)cccc3[nH]2)CCCN1 [Veliparib] (first compound 0.8 µM, partner dose 1.4 µM), the cell count was 81.7%.

On to `OCc1c[nH]c2ccccc12` [Indole-3-carbinol] + Cn1nnc2c(C(N)=O)ncn2c1=O [temozolomide] (first compound 0.8 µM, partner dose 2 µM), for which the cell count amounted to 85.1%.

Turning to `Cn1c(Nc2ccc(C(F)(F)F)cc2)nc2cc(Oc3ccnc(-c4ncc(C(F)(F)F)[nH]4)c3)ccc21` + Nc1cccc2c1CN(C1CCC(=O)NC1=O)C2=O [lenalidomide] (first compound 0.08 µM, partner dose 1 µM), the cell count was 49.4%.

As for `Nc1cccc2c1CN(C1CCC(=O)NC1=O)C2=O` (stereo not given) [lenalidomide] + Cn1nnc2c(C(N)=O)ncn2c1=O [temozolomide] (first compound 1 µM, partner dose 2 µM), the cell count came to 90.8%.

Consider `O=C(CCCCCCC(=O)Nc1ccccc1)NO` [vorinostat] + COc1cc(Nc2ncc(F)c(Nc3ccc4c(n3)NC(=O)C(C)(C)O4)n2)cc(OC)c1OC [Tamatinib] (first compound 0.08 µM, partner dose 0.4 µM), for which the cell count turned out to be 69.7%.

For `Cn1c(Nc2ccc(C(F)(F)F)cc2)nc2cc(Oc3ccnc(-c4ncc(C(F)(F)F)[nH]4)c3)ccc21` + Cn1cncc1[C@@](N)(c1ccc(Cl)cc1)c1ccc2c(c1)c(-c1cccc(Cl)c1)cc(=O)n2C [tipifarnib] (first compound 0.08 µM, partner dose 0.01 µM), the cell count was 34.5%.

Turning to `C#Cc1cccc(Nc2ncnc3cc(OCCOC)c(OCCOC)cc23)c1` [erlotinib] + Cn1c(Nc2ccc(C(F)(F)F)cc2)nc2cc(Oc3ccnc(-c4ncc(C(F)(F)F)[nH]4)c3)ccc21 [CHIR265] (first compound 0.8 µM, partner dose 0.08 µM), the cell count worked out at 50.6%.

`Clc1ccc(Nc2nnc(Cc3ccncc3)c3ccccc23)cc1` [vatalanib] + C#Cc1cccc(Nc2ncnc3cc(OCCOC)c(OCCOC)cc23)c1 [erlotinib] (first compound 2 µM, partner dose 0.8 µM) gave a cell count of 70.2%.

Regarding `OCc1c[nH]c2ccccc12` [Indole-3-carbinol] + Nc1cccc2c1CN(C1CCC(=O)NC1=O)C2=O [lenalidomide] (first compound 0.8 µM, partner dose 1 µM), the cell count was determined as 112%.

Consider `Clc1ccc(Nc2nnc(Cc3ccncc3)c3ccccc23)cc1` [vatalanib] + Cn1c(Nc2ccc(C(F)(F)F)cc2)nc2cc(Oc3ccnc(-c4ncc(C(F)(F)F)[nH]4)c3)ccc21 [CHIR265] (first compound 2 µM, partner dose 0.08 µM), for which the cell count was 58%.

`Cn1c(Nc2ccc(C(F)(F)F)cc2)nc2cc(Oc3ccnc(-c4ncc(C(F)(F)F)[nH]4)c3)ccc21` + C[C@]1(c2nc3c(C(N)=O)cccc3[nH]2)CCCN1 [Veliparib] (first compound 0.08 µM, partner dose 1.4 µM) showed a cell count of 33.5%.

In turn, `OCc1c[nH]c2ccccc12` [Indole-3-carbinol] + Cc1nc(Nc2ncc(C(=O)Nc3c(C)cccc3Cl)s2)cc(N2CCN(CCO)CC2)n1 [dasatanib] (first compound 0.8 µM, partner dose 0.004 µM) returned a cell count of 63.3%.
